According to US20240150422A1 (ONKO INNATE, published 2024):

Biological target: T1, truncated form of the IL-12Rβ2 extracellular region (domains 1-3) (human, UniProt Q99665 24-319, limits assumed)
T1 construct: also called interleukin 12 receptor beta 2
T1 sequence: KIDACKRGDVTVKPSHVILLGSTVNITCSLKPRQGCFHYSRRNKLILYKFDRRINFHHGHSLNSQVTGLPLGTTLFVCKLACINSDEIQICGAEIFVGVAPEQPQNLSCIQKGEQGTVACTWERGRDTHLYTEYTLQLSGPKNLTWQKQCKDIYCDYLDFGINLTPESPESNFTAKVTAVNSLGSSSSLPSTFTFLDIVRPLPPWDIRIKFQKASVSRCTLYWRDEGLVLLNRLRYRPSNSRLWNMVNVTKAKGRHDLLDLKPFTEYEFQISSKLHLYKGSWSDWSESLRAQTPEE
Assay: SPR (Biacore T100, 20 C); IL-12 Fc captured on a protein A chip (245 RU), IL-12Rbeta2 (domains 1-3) as analyte; 1:1 Langmuir model

Kd: 20.6 nM
B1: T43A (Fc fusion)
chain 1: DKTHTCPPCPAPELLGGPSVFLFPPKPKDTLMISRTPEVTCVVVDVSHEDPEVKFNWYVDGVEVHNAKTKPREEQYGSTYRVVSVLTVLHQDWLNGKEYKCKVSNKALPAPIEKTISKAKGQPREPQVYTLPPCRDELTKNQVSLWCLVKGFYPSDIAVEWESNGQPENNYKTTPPVLDSDGSFFLYSKLTVDKSRWQQGNVFSCSVMHEALHNHYTQKSLSLSPGGGGGSGGGGSGGGGSTRRNLPVATPDPGMFPCLHHSQNLLRAVSNMLQKARQTLEFYPCASEEIDHEDITKDKTSTVEACLPLELTKNESCLNSRETSFITNGSCLASRKTSFMMALCLSSIYEDLKMYQVEFKTMNAKLLMDPKRQIFLDQNMLAVIDELMQALNFNSETVPQKSSLEEPDFYKTKIKLCILLHAFRIRAVTIDRVMSYLNAS
chain 2: [human IgG1 Fc with changes not printed]GGGGSGGGGSGGGGSTRIWELKKDVYVVELDWYPDAPGEMVVLTCDTPEEDGITWTLDQSSEVLGSGKTLTIQVKEFGDAGQYTCHKGGEVLSHSLLLLHKKEDGIWSTDILKDQKEPKNKTFLRCEAKNYSGRFTCWWLTTISTDLTFSVKSSRGSSDPQGVTCGAATLSAERVRGDNKEYEYSVECQEDSACPAAEESLPIEVMVDAVHKLKYENYTSSFFIRDIIKPDPPKNLQLKPLKNSRQVEVSWEYPDTWSTPHSYFSLTFCVQVQGKSKREKKDRVFTDKTSATVICRKNASISVRAQDRYYSSSWSEWASVPCS
notes: not in the list of the first reading
